Results taken from PubChem BioAssay AID743279 (National Center for Advancing Translational Sciences (NCATS), 2014).
Several values for one entry are separate records, joined by “and”; a condition that tells them apart may be missing. Equal values may be shown once. Among all 360,000 compounds or so, about 17,000 (4.7%) were called active. This list was built around the results that the source calls inconclusive (neither active nor inactive); the mix of calls is not that of the screen. Rule as the data show it: active = activity change below about -50%; inconclusive = mostly about -30% to -49%; inactive = weaker than that. Where a structure was tested more than once in an assay, its records may differ in their call.

test: qHTS for Inhibitors of Inflammasome Signaling: IL-1-beta AlphaLISA Primary Screen; details: THP-1 LPS/ATP IL-1B secretion, 16 h; at 57.5 µM, active compounds read low
Method in brief: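 Secreted IL-1B measured by AlphaLISA bead assay after 16 h compound exposure of THP-1 cells; compounds (final up to 57.5 uM) added 1 h before LPS (250 ng/mL) and ATP (1.25 mM) stimulation; lower signal means less secretion.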
% is scaled to controls: 0 for no effect and ±100 for the full control effect.

Row | Structure (SMILES) | activity change
1 | O=C(Nc1ccc(S(=O)(=O)N2CCCC2)cc1)C1CC(=O)N(CCc2ccc(F)cc2)C1 (configuration not stated) | inactive: 5.89%
2 | COc1ccc(Br)cc1/C=N/NC(=O)c1ccco1 | inactive: 38.1%
3 | Cn1c(-c2ccccc2)cnc1N | inconclusive: -45.9%
4 | COc1ccc(Cn2nnnc2C(c2ccc(C)cc2)N2CCN(C3CCCC3)CC2)cc1 (configuration not stated) | inconclusive: -37.7%
5 | Cn1c(O)c(C2=c3ccccc3=NC2=O)[nH]c1=S | inactive: 10.3%
6 | CC(/C=C/c1ccc2c(c1)OCO2)=N\NC(=O)C(O)c1ccccc1 (configuration not stated) | inconclusive: -34%
7 | COc1cc(Cl)c(NC2=CC(=O)C(=O)c3ccccc32)c(OC)c1 | inconclusive: -47.6%
8 | COC(=O)[C@]1(Cc2ccccc2)N[C@H](CN(C)C(=O)Nc2ccc(C(F)(F)F)cc2)[C@@H]2C(=O)N(Cc3ccccc3)C(=O)[C@@H]21 | inconclusive: -45%
9 | O=C(C(=O)N1CCN(c2cccc(Cl)c2)CC1)c1cn(CC(=O)N2CCOCC2)c2ccccc12 | inconclusive: -48.7%
10 | Cc1ccc(N2CC(C(=O)N3CCC(C(=O)Nc4cccc(Br)c4)CC3)CC2=O)cc1 (configuration not stated) | inconclusive: -31.5%
11 | COc1ccc(N2Nc3n[nH]c(N)c3N2)cc1 | inconclusive: -36.4%
12 | COc1ccccc1NC(=S)NNC(=O)c1cc(C)n(C)n1 | inactive: 9.36%
13 | Clc1ccccc1Nc1nc(-c2cccnc2)cs1 | active: -86.7%
14 | Cc1nn(CCc2nn[nH]n2)c2nc(-c3ccc(C4CCCCC4)cc3)cc(C(F)(F)F)c12 | active: -105%
15 | O=C(NNC(=S)NC(=O)c1ccc(Br)cc1)c1ccc([N+](=O)[O-])cc1 | inactive: 11%
16 | COc1ccccc1NCC(=O)N/N=C(\C)c1ccc(Br)s1 | inactive: -10.8%
17 | COCCCC/C(=N\OCCN)c1ccc(C(F)(F)F)cc1 | inconclusive: -44.3% and inconclusive: -34.4% and inconclusive: -43.1%
18 | COc1ccccc1CNN | inconclusive: -38.8%
19 | COC(CNc1ncnc2sc(-c3ccccc3)cc12)OC | inconclusive: -39.9%

Row | Structure (SMILES) | activity change
20 | COC(CN(C(=O)CCl)C(C(=O)NC1CCCCC1)c1ccc(Cl)cc1)OC (configuration not stated) | inconclusive: -42.5%
21 | Clc1ccc(CN2CC[C@H]3C=CCc4cccc(c43)C2)cc1 | inactive: 18.4%
22 | CN(/N=C/c1ccc([N+](=O)[O-])o1)c1ccccc1 | inconclusive: -43.2%
23 | CC1CCC(NC(=O)c2ccc(NS(=O)(=O)c3ccc4[nH]c(=O)[nH]c4c3)cc2)CC1 (configuration not stated) | inactive: -9.84%
24 | Fc1ccc(-c2ccc(-c3nn4c(-c5ccco5)nnc4s3)o2)cc1 | inactive: -8.52%
25 | O=C(Nc1ccc2nsnc2c1)NC1CCCCC1 | inconclusive: -40.8%
26 | Cc1ccc(-c2nc3ccc(Br)cn3c2Cc2ccccc2)cc1 | inactive: 0%
27 | Clc1ccc2[nH]c(-c3ccccc3)cc2c1 | inactive: 7.49%
28 | CCOc1ccc(C2=Nn3c(nnc3-c3cccnc3)SC2)cc1 | inactive: -9.47%
29 | COc1ccc(Oc2nccc(-c3ccccc3)c2C#N)cc1 | inconclusive: -38.7%
30 | N#Cc1ccc(C(=O)Nc2ccc3ccccc3c2)cc1 | inactive: 7.24%
31 | CC1=C(C(=O)Nc2cc(C(=O)NCc3ccccc3)ccc2C)SCCO1 | inconclusive: -38.6%
32 | CCCc1ccc2oc(C(=O)NCc3nnc(C)o3)c(C)c2c1 | inconclusive: -37%
33 | COc1cc(OC)nc(S(C)(=O)=O)n1 | active: -95.5%
34 | COc1cccc(/C=C2\SC(=S)N(N3C(=O)CCCC3=O)C2=O)c1 | inactive: -24%
35 | Cc1cccc(Nc2ccc(NCc3ccccc3)nn2)c1 | inconclusive: -30.2%
36 | CN(C)CCCN(C(=O)c1sc2ccccc2c1Cl)c1nc2ccc(F)cc2s1 | active: -81.4%
37 | O=C(c1cccc(F)c1)N1CCCN(C(=O)c2cccc(F)c2)CC1 | inactive: -4.61%
38 | COc1ccc(N2CCN(C(CNC(=O)C(=O)NCc3cccnc3)c3ccco3)CC2)cc1 (configuration not stated) | inactive: 66.6%

Row | Structure (SMILES) | activity change
39 | COc1ccc(NC(=O)C(CC(=O)O)C(C)c2ccccc2)cc1 (configuration not stated) | inactive: 45.3%
40 | Cc1ccccc1NS(=O)(=O)c1ccc(C(=O)N2CCN(c3ccccc3O)CC2)cc1 | inconclusive: -42.8%
41 | Cc1ccc2nc(N(CCN(C)C)C(=O)/C=C/c3cccs3)sc2c1 | inconclusive: -35.7%
42 | CC(C)Oc1cccc(C(=O)NC(=S)Nc2ccccc2)c1 | inactive: -25.4%
43 | Cc1[nH]c2ccccc2c1SCC(=O)N1CCCCCC1 | inconclusive: -36.8%
44 | O=C(COC(=O)c1ccccc1C(=O)N1CCN(c2ccccc2)CC1)Nc1ccc(F)cc1 | inconclusive: -49.5%
45 | Cc1ccc(-c2c[n+](CC(=O)Nc3nc(-c4ccc(F)cc4)cs3)c3n2CCC3)cc1 | active: -99.6%
46 | CCc1cc(SC#N)cc(C)c1N | active: -92.6%
47 | CN1CCN(C(=O)CCN2C(=O)/C(=C\c3ccc(F)cc3)SC2=S)CC1 | active: -99.2%
48 | O=C1N[C@@H](Cc2ccccc2)COC(=O)[C@H](Cc2ccc(F)cc2)C/C=C\C[C@@H]1CC(=O)N(CCO)Cc1ccccc1 | inconclusive: -36.7%
49 | CC(c1nnnn1C(C)(C)C)N(Cc1cccnc1)Cc1ccccc1Cl (configuration not stated) | inconclusive: -37.6%
50 | CC(=O)N1CCc2cc(NC(=O)C3(C)CCN3Cc3ccccc3Cl)ccc21 (configuration not stated) | inactive: -21.7%
51 | N#Cc1ccc(C(=O)Nc2cccc(NC(=O)c3ccco3)c2)c(F)c1 | inconclusive: -34.6%
52 | c1cnc2ncc3sccc3c2c1 | inactive: 11.5%
53 | CSCc1cc(N(C)C)nc(SCc2ccc(Cl)c(Cl)c2)n1 | inactive: -12.5%
54 | O=C(c1cc(S(=O)(=O)N2CCN(c3ccccc3)CC2)ccc1Cl)N1CCCCCCC1 | active: -52.6%
55 | Cc1c(C)n(CC(O)CN2CCCCC2)c2ccccc12 (configuration not stated) | inconclusive: -46.2%
56 | C(=C\c1sc(Nc2ccccc2)n[n+]1-c1ccccc1)/c1ccccc1 | active: -97.7%
57 | Cc1cc(C)c([N+](=O)[O-])cc1-c1ccc(/C=N/c2c(-c3ccco3)nc3ccccn23)o1 | inactive: -15.2%
